Experimental data taken from the supplement of paper PMC4166925.
± gives the standard deviation of the averaged measurements. The full ranking holds about 33,000 sequences; the median of “E-score (dimensionless, -0.5 to 0.5)” is about -0.049, and the highest 2% start at about 0.37. The list shows a part of the results.

System: T1, PmTbr T-box DNA-binding domain (GST fusion)
T1 sequence: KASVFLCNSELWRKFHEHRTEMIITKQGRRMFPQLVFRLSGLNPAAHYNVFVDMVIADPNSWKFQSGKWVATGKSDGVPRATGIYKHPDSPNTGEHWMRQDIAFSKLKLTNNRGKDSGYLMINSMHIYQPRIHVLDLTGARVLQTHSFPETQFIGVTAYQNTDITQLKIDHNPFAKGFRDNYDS
Assay: PBM E-score of 8-mer (E-score (dimensionless, -0.5 to 0.5)); Tbr is Tbrain of the sea star Patiria miniata (Pm) or the sea urchin Strongylocentrotus purpuratus (Sp); higher = stronger binding preference; most listed sequences are background and not binding sites
Details: the construct has about 5 more residues each side
Method: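 Universal protein-binding microarray (Agilent AMADID 016060, 60-bp probes with a 35-bp variable region) incubated with 200 nM GST-fused Patiria miniata Tbr T-box DNA-binding domain (residues 272-466) in PBS pH 7.5. Scored for every ungapped 8-mer (given with its reverse complement) by the Universal PBM Analysis Suite as E-score (modified Wilcoxon-Mann-Whitney enrichment, range -0.5 to 0.5; >0.45 counts as bound) and Z-score of median probe intensity. Two replicate arrays (datasets 1 and 2).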
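Also: 200 nM protein in PBS on universal arrays averaged over duplicate arrays.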

Sequence | PBM E-score of 8-mer
GTGCTTAA | -0.0304 ± 0.032
TAGGATAA | -0.135 ± 0.012
CGCTAACC | 0.256 ± 0.017
ATCGTCAC | 0.403 ± 0.0068
ACATTTTC | 0.157 ± 0.062
GACCTCCC | -0.178 ± 0.0044
GGACATGA | -0.0323 ± 0.0046
ATCCTAAA | -0.391 ± 0.069
GCAAGTCA | 0.14 ± 0.025
ACTGACAA | 0.166 ± 0.009
ACAACTAA | 0.135 ± 0.029
ACCTAATA | 0.156 ± 0.012
AATTATCC | -0.0715 ± 0.11
ACATGGTA | 0.0743 ± 0.0085
ATGAGACC | -0.213 ± 0.023
CAAGGGCA | -0.0494 ± 0.062
ACGCCATC | 0.143 ± 0.031
ATCAAAGG | -0.137 ± 0.0037
CCACCGAA | -0.0817 ± 0.054
ATTCATGA | -0.288 ± 0.025
GTGTAATA | 0.229 ± 0.089
ATGGCCAA | -0.191 ± 0.003
GCGGGCCA | 0.0195 ± 0.055
CTCTTGTC | -0.0139 ± 0.029
TACATTAA | -0.219 ± 0.025

Sequence | PBM E-score of 8-mer
AGATTTAG | 0.00196 ± 0.0076
TACTGGGA | -0.131 ± 0.035
AGCGAGGG | 0.1683 ± 0.0013
AGTGCGAC | 0.37 ± 0.012
CGAAAGAA | 0.0356 ± 0.063
ACCCGAGG | -0.102 ± 0.066
TGTGTTAA | 0.365 ± 0.029
ATGGTTTA | -0.159 ± 0.062
CCATTATA | -0.0169 ± 0.016
CTCGTTGC | -0.0582 ± 0.016
GTACACAA | 0.0651 ± 0.0098
GTACAACA | 0.0279 ± 0.061
ATACATGC | -0.171 ± 0.024
CGCGTTCA | 0.108 ± 0.0048
CATGCCGG | 0.0193 ± 0.046
CTATGACA | 0.0502 ± 0.04
GCAGGAAC | -0.0921 ± 0.0075
CGTCTTGA | 0.0501 ± 0.12
ACGATGGC | 0.138 ± 0.045
AACAGAAA | 0.0391 ± 0.03
AGCATTAG | -0.185 ± 0.058
ATCGTTGA | -0.173 ± 0.031
ATCGTCAA | 0.0469 ± 0.0067
CACCTTAG | 0.4473 ± 0.0023
ACCCACGT | 0.206 ± 0.017

Sequence | PBM E-score of 8-mer
CTCTCTGC | -0.164 ± 0.018
AAACGGTA | -0.0794 ± 0.096
ACATTTAT | -0.0187 ± 0.078
GCTCTTTA | -0.393 ± 0.017
GCAACCCC | 0.0223 ± 0.014
ACTGAGAA | -0.00583 ± 0.037
ACGGACTC | -0.221 ± 0.041
ATAAATGG | -0.252 ± 0.0056
CGGGATTA | -0.304 ± 0.042
ATGACGAG | -0.125 ± 0.076
CGTATCCA | -0.309 ± 0.11
GAATAGTA | -0.0941 ± 0.0043
GGATAAGA | -0.0567 ± 0.028
AACACGCC | 0.281 ± 0.0074
AGTAAATC | -0.0816 ± 0.092
GAAATGTC | 0.0434 ± 0.029
AAGATTGA | 0.0116 ± 0.077
CGGACAAG | -0.0464 ± 0.025
CACTCCCG | 0.209 ± 0.0078
CTAAGAAG | 0.13 ± 0.039
GAGCGACC | -0.0895 ± 0.13
CAAACCCA | -0.0176 ± 0.0012
ACCAATAG | -0.1482 ± 0.00068
CCTCTGCC | 0.0232 ± 0.017
AATGCCCG | 0.0543 ± 0.049

Sequence | PBM E-score of 8-mer
AAGCACCA | -0.0877 ± 0.011
AGTGCTTG | -0.164 ± 0.036
CGAATGTC | -0.0275 ± 0.0064
ATTTGCCG | 0.102 ± 0.041
CTCTCCTA | -0.118 ± 0.0063
AACATACG | -0.03 ± 0.023
GAAGGACC | -0.241 ± 0.026
GAATAGCC | -0.144 ± 0.053
CGAGTTTC | 0.0431 ± 0.014
ACGGCGTG | 0.2621 ± 0.0012
AGTGGTTG | -0.0432 ± 0.029
AATAGGCA | -0.119 ± 0.009
GAGGCTAC | -0.192 ± 0.034
AACAGCGA | 0.0744 ± 0.026
ATGAACAA | -0.144 ± 0.024
AGCTGTAT | -0.22 ± 0.046
GGACGCGA | -0.0355 ± 0.028
TAGCAACA | 0.288 ± 0.0082
CCGCTAGC | 0.0751 ± 0.017
ACCTTACC | 0.0523 ± 0.018
ACGAAGGA | -0.134 ± 0.042
ACTGTAGG | -0.0391 ± 0.04
CTTACGTC | -0.119 ± 0.055
TCATTAAA | -0.113 ± 0.031
AAAGGTCG | -0.0893 ± 0.048

Sequence | PBM E-score of 8-mer
TCTTAAAA | 0.00331 ± 0.079
CTTAGTAA | -0.0877 ± 0.026
GTTATGGA | -0.104 ± 0.0036
TCCATGCA | -0.238 ± 0.015
AGCACGCT | -0.0568 ± 0.002
ACTCTACA | -0.0227 ± 0.028
CACTCCGA | 0.133 ± 0.023
CGAGCCTC | -0.21 ± 0.023
CCGCAGGA | -0.279 ± 0.045
CGCCGATA | -0.0288 ± 0.06
ACGCCTCT | 0.2542 ± 0.0022
ACGAAGGC | 0.1204 ± 0.00038
ACCGAAGC | -0.106 ± 0.0019
ATCGCGCG | 0.314 ± 0.015
AGGCGACC | -0.13 ± 0.17
GATCATCA | 0.0152 ± 0.026
ATCGATCA | -0.0185 ± 0.041
TCACCTGA | 0.353 ± 0.019
ACAGAAGT | 0.0721 ± 0.022
GCCAGCCC | -0.173 ± 0.021
CCATGGAC | 0.0124 ± 0.025
CCGTAAAC | -0.126 ± 0.021
ATGTGGGA | 0.175 ± 0.04
GAACATTC | -0.3 ± 0.045
AATTTGCG | 0.18 ± 0.033

Sequence | PBM E-score of 8-mer
GCTGTACA | -0.0215 ± 0.03
CGAGGGTC | -0.133 ± 0.039
CTTGACAA | 0.328 ± 0.0034
GAGGCGAA | -0.0798 ± 0.005
GGCCTGAC | -0.103 ± 0.02
ACATTAGG | 0.0856 ± 0.037
GACAAGCA | -0.0524 ± 0.085
ATTCTTTC | -0.16 ± 0.093
GAGCGAGA | 0.0973 ± 0.013
AAGCTCGT | -0.194 ± 0.088
CACTGGAA | -0.0945 ± 0.0084
ACTGGAAA | -0.2104 ± 0.0017
GACGCAAA | 0.0266 ± 0.044
GCTGACTA | -0.0402 ± 0.059
ACTATGCA | 0.0478 ± 0.048
TAGCTTAA | -0.163 ± 0.029
TAATATAA | -0.201 ± 0.047
GAAGCGCC | 0.0934 ± 0.033
ATGCGGTC | -0.168 ± 0.11
AATGAGTG | -0.0213 ± 0.075
CTGATCGC | 0.0865 ± 0.06
CCATGCGA | 0.178 ± 0.025
ATCACTAA | 0.0668 ± 0.0062
CCCGCCCC | 0.0457 ± 0.015
AAGAATCC | -0.0447 ± 0.052

Sequence | PBM E-score of 8-mer
CCTGCTAG | 0.0821 ± 0.036
AAGGATGC | -0.0358 ± 0.031
ACATCTCG | 0.00518 ± 0.044
AGGCATTC | -0.101 ± 0.038
GAGTACCA | -0.0466 ± 0.035
AAACACCT | 0.4565 ± 0.0016
TATCGTGA | 0.0852 ± 0.01
AGGTGTAC | 0.218 ± 0.043
AGTTCCAT | -0.00621 ± 0.036
AAGATGTG | 0.224 ± 0.026
GGACTACC | -0.3 ± 0.087
ACGCCCAC | 0.0928 ± 0.075
TTAGACAA | -0.144 ± 0.0043
GGCGTCTA | 0.0319 ± 0.033
GGTTGTGA | 0.244 ± 0.0053
GCGCTGAA | 0.064 ± 0.049
AAGAAAAA | -0.0882 ± 0.11
ATGACCTG | 0.0827 ± 0.042
CTACTGAG | -0.0598 ± 0.034
TCCAAAGA | -0.137 ± 0.036
CCTCAATA | -0.176 ± 0.051
ATTACTGA | -0.0734 ± 0.066
